Reference: patent US12458818B2, “Anti-trophoblast cell surface antigen 2 (TROP2) antibodies and antibody drug conjugates comprising same” (CSPC MEGALITH BIOPHARMACEUTICAL CO., LTD., priority 2019, dated 2025)
Numbering of substitutions follows the chain as printed.

T1: human TROP2 (Homo sapiens, UniProt P09758)
T1 sequence (P09758 27-323): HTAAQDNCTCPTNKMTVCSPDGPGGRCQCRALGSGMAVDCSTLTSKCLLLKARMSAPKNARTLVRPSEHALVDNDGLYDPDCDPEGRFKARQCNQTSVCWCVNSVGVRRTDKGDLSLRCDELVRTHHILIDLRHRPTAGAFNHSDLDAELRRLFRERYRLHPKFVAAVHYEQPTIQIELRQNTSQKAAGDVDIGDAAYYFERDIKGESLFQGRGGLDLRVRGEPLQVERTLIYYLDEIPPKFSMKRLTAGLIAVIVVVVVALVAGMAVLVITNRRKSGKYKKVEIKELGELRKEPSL

B1: HC3/LC1 (antibody)
heavy: QVQLVQSGAEVKKPGASVKVSCKASGYTFTDYSINWVRQAPGQRLEWMGVISTYYGDASYNQKFKGRVTITRDTSASTAYMELSSLRSEDTAVYYCARYGDGYNQFDYWGQGTLVTVSS[human IgG1 constant region cut from this listing]
light: DIVMTQSPDSLAVSLGERATINCRVSESVDSYGNNFMHWYQQKPGQPPKLLIYRASNLESGVPDRFSGSGSGTDFTLTISSLQAEDVAVYYCQQSYEDPYTFGQGTKLEIKRTVAAPSVFIFPPSDEQLKSGTASVVCLLNNFYPREAKVQWKVDNALQSGNSQESVTEQDSKDSTYSLSSTLTLSKADYEKHKVYACEVTHQGLSSPVTKSFNRGEC
B2: HC1/LC4: humanized anti-TROP2 antibody, heavy chain SEQ ID NO: 52, light chain SEQ ID NO: 61 (antibody)
heavy: B1 heavy with R44G, I70M, R72T, A76T, S84R, E89D, L114M
light: EIVLTQSPATLSLSPGERATLSCRVSESVDSYGNNFMHWYQQKPGQAPRLLIYRASNLESGIPARFSGSGSGTDFTLTISSLEPEDFAVYYCQQSYEDPYTFGGGTKVEIKRTVAAPSVFIFPPSDEQLKSGTASVVCLLNNFYPREAKVQWKVDNALQSGNSQESVTEQDSKDSTYSLSSTLTLSKADYEKHKVYACEVTHQGLSSPVTKSFNRGEC
B3: HC2/LC4: humanized anti-TROP2 antibody, heavy chain SEQ ID NO: 53, light chain SEQ ID NO: 61 (antibody)
heavy: B1 heavy with R44G, I70M, A76T, A79V
light: B2 light
B4: HC3/LC3: humanized anti-TROP2 antibody, heavy chain SEQ ID NO: 54, light chain SEQ ID NO: 60 (antibody)
heavy: B1 heavy
light: DIVMTQSPLSLPVTPGEPASISCRVSESVDSYGNNFMHWYLQKPGQSPQLLIYRASNLESGVPDRFSGSGSGTDFTLKISRVEAEDVGVYYCQQSYEDPYTFGGGTKVEIKRTVAAPSVFIFPPSDEQLKSGTASVVCLLNNFYPREAKVQWKVDNALQSGNSQESVTEQDSKDSTYSLSSTLTLSKADYEKHKVYACEVTHQGLSSPVTKSFNRGEC
B5: HC4/LC3: humanized anti-TROP2 antibody, heavy chain SEQ ID NO: 55, light chain SEQ ID NO: 60 (antibody)
heavy: B1 heavy with A16S, R44G, R72A, T74E, A76T
light: B4 light
B6: HC2/LC3: humanized anti-TROP2 antibody, heavy chain SEQ ID NO: 53, light chain SEQ ID NO: 60 (antibody)
heavy: B1 heavy with R44G, I70M, A76T, A79V
light: B4 light

Molecular target: T1, human TROP2
Test: SPR affinity ranking of humanized antibodies (Table 8C)
Assay type: binding

Molecule | Ka [M⁻¹ s⁻¹] | Kd (1/s) [s⁻¹] | Rmax (RU)
B1 | 1.65e+06 | 0.00011 | 53.3
B2 | 1.38e+06 | 0.000126 | 45
B3 | 1.46e+06 | 0.00014 | 41.3
B4 | 1.49e+06 | 0.000159 | 35.2
B5 | 1.95e+06 | 0.000178 | 29.6
B6 | 1.36e+06 | 0.000141 | 35.4
